Results published in publication PMC6404114, “OTULIN deficiency in ORAS causes cell type‐specific LUBAC degradation, dysregulated TNF signalling and cell death” (EMBO Molecular Medicine, 2019).
Blank lines part the entries; values can stand above or below the binder they belong to.

Target: T1, FlAsH-labelled M1-linked diUb (UniProt P0CG47 fragment; P0CG47 fragment, FlAsH label (position not given))
T1 construct: ubiquitin, distal moiety of Met1-linked (linear) diubiquitin; its C-terminus is joined to Met1 of the next ubiquitin; ubiquitin, proximal moiety of Met1-linked (linear) diubiquitin; also called linear diubiquitin
Assay: fluorescence polarisation; FlAsH-labelled M1-linked diUb with recombinant catalytically inactive OTULIN; performed as in Keusekotten et al, 2013; technical triplicate
Settings: both partners purified

Kd: 9.3 µM
B1: OTULIN^C129A/G281R (enzyme)
chain: not shown
notes: Construct limits may stand in the Appendix Supplementary Methods; source: E. coli, purified (as described in Elliott et al, 2014)

Kd: 0.085 µM
B2: catalytically inactive OTULIN^C129A (enzyme)
chain: not shown
notes: also called OTU family deubiquitinase with linear Ub specificity; FAM105B; source: E. coli, purified (as described in Elliott et al, 2014)
